Paper PMC7454948
Numbering of substitutions follows the chain as printed. Numbers in names are those of the source. Results are given in words; binding and its absence hold for the method and conditions named. Binding seen in cells or lysates may run through a third protein. Some binding calls cover weakened binding; strength is not graded here. Tags and fused reporters may be left off the sequences shown. Values belong to the molecule of their own block, whether it stands above or below them.

Chains of the proteins cited; added tags and fusions are not shown.
UniProt P38903: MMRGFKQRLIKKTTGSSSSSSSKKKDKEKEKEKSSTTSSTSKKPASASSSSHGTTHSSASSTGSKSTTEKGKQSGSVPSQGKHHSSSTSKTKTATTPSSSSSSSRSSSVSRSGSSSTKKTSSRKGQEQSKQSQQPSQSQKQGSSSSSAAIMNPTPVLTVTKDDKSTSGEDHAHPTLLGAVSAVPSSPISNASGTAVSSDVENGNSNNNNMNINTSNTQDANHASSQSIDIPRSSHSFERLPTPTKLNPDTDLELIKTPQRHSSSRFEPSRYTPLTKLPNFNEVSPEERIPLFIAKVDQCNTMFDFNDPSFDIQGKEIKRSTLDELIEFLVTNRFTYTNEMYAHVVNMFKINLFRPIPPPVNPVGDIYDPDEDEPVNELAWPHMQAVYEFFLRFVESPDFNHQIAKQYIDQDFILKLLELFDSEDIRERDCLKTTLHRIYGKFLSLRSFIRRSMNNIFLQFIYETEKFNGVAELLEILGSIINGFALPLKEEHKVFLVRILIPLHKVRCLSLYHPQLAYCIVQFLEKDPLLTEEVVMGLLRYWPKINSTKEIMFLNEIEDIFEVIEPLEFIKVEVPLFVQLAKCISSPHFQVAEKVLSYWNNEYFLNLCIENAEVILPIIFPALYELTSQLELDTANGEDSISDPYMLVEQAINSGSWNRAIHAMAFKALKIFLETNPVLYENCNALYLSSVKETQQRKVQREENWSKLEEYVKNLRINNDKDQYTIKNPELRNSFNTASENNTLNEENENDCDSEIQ

Key:
[1] = molecular target: T1, GST-Sgo1 N51I (S. cerevisiae) (UniProt Q08490); assay: pull-down; GST-Sgo1 proteins (100 ug) on glutathione magnetic beads, rotated with yeast lysate 2 h at 4°C; eluates immunoblotted with anti-FLAG (Ycg1), anti-HA (Smc2), anti-MYC (Rts1); only the target purified
T1 sequence: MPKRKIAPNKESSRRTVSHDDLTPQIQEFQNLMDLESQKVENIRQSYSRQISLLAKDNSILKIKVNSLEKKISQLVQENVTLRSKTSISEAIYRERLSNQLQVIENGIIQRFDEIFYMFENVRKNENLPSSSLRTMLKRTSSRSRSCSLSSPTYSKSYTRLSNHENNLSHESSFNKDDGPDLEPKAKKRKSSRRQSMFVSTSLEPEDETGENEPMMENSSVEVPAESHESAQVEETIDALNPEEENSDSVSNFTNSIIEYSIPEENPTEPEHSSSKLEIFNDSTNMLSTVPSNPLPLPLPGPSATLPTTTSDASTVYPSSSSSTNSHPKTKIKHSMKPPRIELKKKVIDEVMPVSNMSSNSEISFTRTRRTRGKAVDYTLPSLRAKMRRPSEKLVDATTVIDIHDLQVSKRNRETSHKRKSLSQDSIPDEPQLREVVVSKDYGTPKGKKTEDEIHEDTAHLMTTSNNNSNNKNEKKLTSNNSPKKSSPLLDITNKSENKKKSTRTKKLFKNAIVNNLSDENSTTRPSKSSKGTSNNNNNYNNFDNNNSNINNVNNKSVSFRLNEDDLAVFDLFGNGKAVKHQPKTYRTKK

[2] = molecular target: T2, GST-Sgo1 1–163 (S. cerevisiae) (UniProt Q08490); assay: as above
T2 sequence: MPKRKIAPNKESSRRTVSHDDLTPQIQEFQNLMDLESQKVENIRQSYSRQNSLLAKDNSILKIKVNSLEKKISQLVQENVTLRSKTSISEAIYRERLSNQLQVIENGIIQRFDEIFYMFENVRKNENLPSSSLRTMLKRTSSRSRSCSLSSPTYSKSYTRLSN

[3] = molecular target: T3, GST-Sgo1wt (full length Sgo1-GST) (S. cerevisiae) (UniProt Q08490); assay: as above
T3 sequence: T1 sequence with I51N

[4] = molecular target: T4, Brn1-GFP (S. cerevisiae) (UniProt P38170); assay: co-IP; GFP-Trap agarose beads, yeast lysates in native lysis buffer (20 mM HEPES pH 7.5, 0.5% Triton X-100, 200 mM NaCl), 2 hours at 4°C; Smc2-GFP or Brn1-GFP pulled down, Sgo1-TAP detected with PAP
T4 sequence: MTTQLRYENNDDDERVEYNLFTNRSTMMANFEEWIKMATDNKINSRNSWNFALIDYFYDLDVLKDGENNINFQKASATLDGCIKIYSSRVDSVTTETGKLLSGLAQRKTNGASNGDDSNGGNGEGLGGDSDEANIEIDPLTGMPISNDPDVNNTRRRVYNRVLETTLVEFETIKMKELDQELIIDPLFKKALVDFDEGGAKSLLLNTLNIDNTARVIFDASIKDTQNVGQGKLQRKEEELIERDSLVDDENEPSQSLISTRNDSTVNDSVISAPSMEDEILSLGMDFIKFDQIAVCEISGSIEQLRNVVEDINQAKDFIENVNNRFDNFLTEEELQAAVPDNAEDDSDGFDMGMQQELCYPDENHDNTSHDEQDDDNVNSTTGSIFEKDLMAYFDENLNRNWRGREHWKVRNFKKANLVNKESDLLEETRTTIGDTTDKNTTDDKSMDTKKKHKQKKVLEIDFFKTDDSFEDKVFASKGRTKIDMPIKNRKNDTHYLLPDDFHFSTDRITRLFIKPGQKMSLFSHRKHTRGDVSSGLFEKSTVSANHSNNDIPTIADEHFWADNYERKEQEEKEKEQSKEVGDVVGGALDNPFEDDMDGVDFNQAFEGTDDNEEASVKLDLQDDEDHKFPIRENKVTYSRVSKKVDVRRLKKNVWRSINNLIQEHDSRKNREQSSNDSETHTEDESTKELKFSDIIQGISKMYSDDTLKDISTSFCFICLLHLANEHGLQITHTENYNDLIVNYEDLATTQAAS

[5] = molecular target: T5, Smc2-GFP (S. cerevisiae) (UniProt P38989); assay: as above
T5 sequence: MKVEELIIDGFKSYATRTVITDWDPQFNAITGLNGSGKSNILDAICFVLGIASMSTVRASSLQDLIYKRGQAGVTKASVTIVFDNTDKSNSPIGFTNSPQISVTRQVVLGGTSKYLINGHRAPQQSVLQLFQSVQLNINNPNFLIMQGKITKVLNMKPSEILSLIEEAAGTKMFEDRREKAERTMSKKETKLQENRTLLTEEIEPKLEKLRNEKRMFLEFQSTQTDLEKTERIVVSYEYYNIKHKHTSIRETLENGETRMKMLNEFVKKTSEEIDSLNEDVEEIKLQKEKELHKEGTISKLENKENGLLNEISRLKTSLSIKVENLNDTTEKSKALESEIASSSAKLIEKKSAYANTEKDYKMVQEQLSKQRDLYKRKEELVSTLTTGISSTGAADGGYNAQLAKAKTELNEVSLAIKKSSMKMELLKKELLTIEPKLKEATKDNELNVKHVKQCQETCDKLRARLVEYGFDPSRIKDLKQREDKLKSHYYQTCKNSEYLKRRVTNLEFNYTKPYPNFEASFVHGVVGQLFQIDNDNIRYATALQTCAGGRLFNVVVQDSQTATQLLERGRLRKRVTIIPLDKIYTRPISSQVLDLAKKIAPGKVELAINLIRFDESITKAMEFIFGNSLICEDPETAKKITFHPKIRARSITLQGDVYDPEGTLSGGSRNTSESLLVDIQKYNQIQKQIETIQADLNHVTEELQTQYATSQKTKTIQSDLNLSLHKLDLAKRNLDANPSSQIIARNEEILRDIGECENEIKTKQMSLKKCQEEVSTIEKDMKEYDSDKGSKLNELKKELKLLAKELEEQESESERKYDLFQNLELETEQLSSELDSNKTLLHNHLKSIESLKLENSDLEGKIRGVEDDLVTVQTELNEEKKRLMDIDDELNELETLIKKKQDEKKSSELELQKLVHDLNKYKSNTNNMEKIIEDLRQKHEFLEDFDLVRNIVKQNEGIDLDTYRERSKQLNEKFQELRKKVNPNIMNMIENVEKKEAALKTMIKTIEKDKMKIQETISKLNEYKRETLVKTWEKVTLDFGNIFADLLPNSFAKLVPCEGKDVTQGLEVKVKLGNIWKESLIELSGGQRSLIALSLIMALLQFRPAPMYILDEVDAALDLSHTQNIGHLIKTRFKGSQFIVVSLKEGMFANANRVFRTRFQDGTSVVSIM

binding [1]: no binding
binding [2]: binds
binding [3]: binds
Molecule: Rts1-9Myc (from UniProt P38903 1-757)

binding [4]: binds
binding [5]: binds
B1: Sgo1-TAP (protein, UniProt Q08490 1-590)
chain: T1 sequence with I51N

binding [5]: binds
B2: Sgo1-N51I (TAP-tagged, in yeast) (protein, UniProt Q08490 1-590)
chain: T1 sequence

binding [5]: binds
B3: Sgo1 S151E (TAP-tagged, in yeast) (protein, UniProt Q08490 1-590)
chain: T1 sequence with I51N, S151E

binding [4]: binds
binding [5]: binds
B4: Sgo1-13A (TAP-tagged, in yeast) (protein, UniProt Q08490 1-590)
chain: MPKRKIAPNKESSRRTVSHDDLTPQIQEFQNLMDLESQKVENIRQSYSRQNSLLAKDNSILKIKVNSLEKKISQLVQENVTLRSKTSISEAIYRERLSNQLQVIENGIIQRFDEIFYMFENVRKNENLPSSSLRTMLKRAAARARACALAAPAYAKAYARLANHENNLSHESSFNKDDGPDLEPKAKKRKSSRRQSMFVSTSLEPEDETGENEPMMENSSVEVPAESHESAQVEETIDALNPEEENSDSVSNFTNSIIEYSIPEENPTEPEHSSSKLEIFNDSTNMLSTVPSNPLPLPLPGPSATLPTTTSDASTVYPSSSSSTNSHPKTKIKHSMKPPRIELKKKVIDEVMPVSNMSSNSEISFTRTRRTRGKAVDYTLPSLRAKMRRPSEKLVDATTVIDIHDLQVSKRNRETSHKRKSLSQDSIPDEPQLREVVVSKDYGTPKGKKTEDEIHEDTAHLMTTSNNNSNNKNEKKLTSNNSPKKSSPLLDITNKSENKKKSTRTKKLFKNAIVNNLSDENSTTRPSKSSKGTSNNNNNYNNFDNNNSNINNVNNKSVSFRLNEDDLAVFDLFGNGKAVKHQPKTYRTKK
